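96-well plates; 48 h exposure; 5 concentrations. Endpoints by linear interpolation between flanking doses. Not reached: highest tested concentration assigned. The concentration for 50% growth inhibition is given as GI50. TGI marks complete inhibition of growth.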
Test system: NCI-H322M lung
Test: NCI-60 cell line screen, 48 h

Row | SMILES | GI50 [µM] | TGI [µM]
1 | Cc1ccc2c(n1)C(=O)C(Cl)=C(Nc1ccc(C)c(C)c1)C2=O | 4.51 | 23.8
2 | CN(C)S(=O)(=O)c1ccc(-c2nc(C(Cl)Cl)nc3cc(-c4ccc(F)cc4)nn23)cc1 | 1.6 | 4.84

From PubChem BioAssay (NCI)
